From paper PMC4336329 (PLoS ONE, 2015)
Screen size: about 310,000 compounds; about 2,200 (0.71%) showed an effect of 50% or more. Effects have a minus sign here. The list shows a part of the results.

Biological target: human ether-à-go-go-related gene (hERG) potassium channel (human, UniProt Q12809)
Assay: primary screen, population patch clamp on CHO cells stably expressing hERG

human ether-à-go-go-related gene (hERG) potassium channel, sequence (Q12809 whole entry, looked up): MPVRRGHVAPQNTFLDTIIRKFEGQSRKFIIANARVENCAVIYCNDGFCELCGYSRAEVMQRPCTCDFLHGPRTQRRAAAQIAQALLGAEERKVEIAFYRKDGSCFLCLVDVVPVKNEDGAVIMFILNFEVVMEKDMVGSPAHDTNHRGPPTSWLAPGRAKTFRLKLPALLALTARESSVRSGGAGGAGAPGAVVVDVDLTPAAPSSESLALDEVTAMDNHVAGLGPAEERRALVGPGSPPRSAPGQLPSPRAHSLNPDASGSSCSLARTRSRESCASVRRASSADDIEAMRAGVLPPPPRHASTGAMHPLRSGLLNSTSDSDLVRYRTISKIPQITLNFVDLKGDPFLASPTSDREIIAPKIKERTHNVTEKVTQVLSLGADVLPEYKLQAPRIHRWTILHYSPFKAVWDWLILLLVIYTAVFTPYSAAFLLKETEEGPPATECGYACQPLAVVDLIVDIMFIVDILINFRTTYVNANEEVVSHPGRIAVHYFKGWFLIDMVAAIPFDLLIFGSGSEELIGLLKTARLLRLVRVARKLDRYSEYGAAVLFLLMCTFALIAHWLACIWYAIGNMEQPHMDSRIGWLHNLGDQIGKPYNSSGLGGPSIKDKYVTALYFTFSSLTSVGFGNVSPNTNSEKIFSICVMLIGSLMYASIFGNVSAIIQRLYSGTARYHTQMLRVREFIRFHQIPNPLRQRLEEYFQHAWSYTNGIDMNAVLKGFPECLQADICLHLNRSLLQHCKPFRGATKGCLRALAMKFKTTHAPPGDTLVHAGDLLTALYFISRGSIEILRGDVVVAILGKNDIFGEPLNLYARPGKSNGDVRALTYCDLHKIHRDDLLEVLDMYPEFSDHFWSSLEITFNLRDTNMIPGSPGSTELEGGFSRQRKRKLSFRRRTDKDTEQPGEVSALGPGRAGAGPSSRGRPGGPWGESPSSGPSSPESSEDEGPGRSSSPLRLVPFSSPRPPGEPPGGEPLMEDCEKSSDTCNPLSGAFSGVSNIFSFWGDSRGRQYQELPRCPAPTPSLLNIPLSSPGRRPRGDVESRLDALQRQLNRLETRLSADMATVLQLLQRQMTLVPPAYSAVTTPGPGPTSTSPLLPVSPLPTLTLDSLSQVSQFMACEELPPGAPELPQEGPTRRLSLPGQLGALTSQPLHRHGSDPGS

SMILES | hERG current change (%, negative = inhibition) at 1uM
CS(=O)(=O)c1ccc(Cl)c(NC(=O)Cc2c(Cl)cccc2Cl)c1 | -2.12%
CCCCc1cc(=O)oc2cc(OCC(=O)NCCN3CCOCC3)ccc12 | 3.6%
Cc1cc(NC(=O)CSc2nc3ccsc3c(=O)n2CCCCC(=O)O)no1 | -3.24%
O=C(CC(c1ccccc1)c1cc(Cl)ccc1O)N1CCCC1 (stereo not drawn) | 7.53%
O=C(CC(C(=O)O)c1ccc(Cl)cc1)c1ccccc1 (stereo not drawn) | 8.25%
COc1ccc(Cc2nnc(SCC(=O)c3c(N)n(C4CC4)c(=O)[nH]c3=O)o2)cc1 | 2.58%
O=C(CCc1ccccc1)NNC(=O)Cc1ccccc1 | 15.4%
Cc1ccc(NC(=O)CCc2nnc3ccc(N4CCOCC4)nn23)cc1C | -7.73%
COc1cccc(-c2cn3nc(C)c(C)nc3n2)c1 | 9.08%
COc1ccc(NC(=O)CN(C)C(=O)c2cccc(NS(=O)(=O)c3ccc(Br)cc3)c2)cc1 | 13.8%
O=c1c2ccccc2cnn1-c1ccc(Br)cc1 | 9.07%
CCCc1nc2oc3c(NCCOCCO)ncnc3c2c2c1COC(C)(C)C2 | 0.359%
CC(NS(=O)(=O)c1cccc(S(=O)(=O)c2ccccc2)c1)C(=O)O (stereo not drawn) | 7.71%
CCOC(=O)C1=C(CN2CCN(C(=O)c3ccco3)CC2)NC(=O)NC1c1ccc(OC(C)C)cc1 (stereo not drawn) | -20%
COc1ccc(C(=O)OCC(=O)NC(=O)CCSc2ccccc2)cc1 | 6.46%
CC(C(=O)Nc1ccc(F)c(F)c1F)N(C)Cc1cccs1 (stereo not drawn) | 13.5%
CC(C)OCc1c(C(=O)Nc2nccs2)oc2ccccc12 | 1.77%
Cc1nc2ccc(F)cc2cc1C(=O)NC(C)C | 7.69%
CCOc1nc(NCCN2CCOCC2)nc(Nc2ccc([N+](=O)[O-])cc2)n1 | -45.8%
CC(C)c1nc2cc(C(=O)N3CCNC(=O)C3c3ccc(F)cc3)ccc2o1 (stereo not drawn) | 15.2%
O=C(O)C(Cc1ccc(O)cc1)N1C(=O)C2CCCCC2C1=O (stereo not drawn) | 12.3%
Cc1cc(CNC(=O)C2CCC(=O)N(Cc3ccccc3F)C2)nn1C (stereo not drawn) | 13.9%

SMILES | hERG current change (%, negative = inhibition) at 1uM
O=C(c1ccoc1)N1CCCC(CO)(CCCc2ccccc2)C1 (stereo not drawn) | 2.26%
Cc1cc(C)n(-c2nc(NCc3cccnc3)c3c4c(sc3n2)COC(C)(C)C4)n1 | -3.94%
Cc1cc(C)nc(N2CCC(C(=O)NCCc3ccc(Cl)cc3)CC2)n1 | 12%
CC1=NNC(=O)C1CCC(=O)N/N=C/c1ccc(C)cc1 (stereo not drawn) | 3.83%
CCOc1cc(NC(=S)NCCOC)c(OCC)cc1NC(=O)c1cccs1 | 0.447%
O=C(O)c1cc(S(=O)(=O)N(Cc2ccccc2)c2ccccc2)ccc1Cl | 12.7%
COC(=O)N1N=C(c2ccccc2)CC1(O)C(F)(F)F (stereo not drawn) | 14.8%
O=C(CN1C(=O)NC(Cc2c[nH]c3ccccc23)C1=O)Nc1ccccc1Br (stereo not drawn) | 6.08%
C[N+]1(C)[C@@H]2CC(OC(=O)[C@H](CO)c3ccccc3)C[C@H]1[C@@H]1O[C@@H]12.[Br-] (stereo partly drawn) | 18.5%
COc1ccc(S(=O)(=O)N2CCC(N3CCCCC3)CC2)cc1 | -1.84%
COc1ccc(OCc2cc(C(=O)N3CCCC(OC)C3)no2)c2ccccc12 (stereo not drawn) | 16.6%
COc1ccc(CCNC(=O)CN(C2CCCCC2)S(C)(=O)=O)cc1OC | 4.82%
CCOC(=O)c1c(O)c2ccccc2n(-c2ccccc2)c1=O | 8.68%
COC(=O)C(C)Sc1nc2c(cnn2-c2ccc(Cl)cc2)c(=O)[nH]1 (stereo not drawn) | 13.4%
COc1cc(OC)c(NC(=O)N2CCOCC2)cc1Cl | 4.51%
COC(=O)c1ccc(OCCCCN(C)Cc2ccccc2)cc1.O=C(O)C(=O)O | 9.79%
S=C(NCC1CCCO1)Nc1cccc2ccccc12 (stereo not drawn) | 21.3%
O=C(O)c1ccc(NC2OC[C@@H](O)[C@H](O)[C@H]2O)cc1 (stereo partly drawn) | 2.67%
c1ccc(C2=Nn3c(nnc3-c3cc(-c4ccccc4)n[nH]3)SC2)cc1 | 13%
Cn1c(=O)c(-c2ccccc2N)nc2ccccc21 | 8.43%
CCOc1ccc(NC(=O)CCNC(=O)C2CCN(S(=O)(=O)c3ccccc3)CC2)cc1 | 9.17%
Cc1nc2ccc(NC(=O)c3cccc(S(=O)(=O)N4CC(C)OC(C)C4)c3)cc2s1 (stereo not drawn) | 12%

SMILES | hERG current change (%, negative = inhibition) at 1uM
CN(CCOc1cccc2ccccc12)Cc1ccccc1.O=C(O)C(=O)O | 8.2%
COC(=O)c1ccccc1NC(=O)N1CSC[C@H]1C(=O)OC | 13.1%
Cc1cc(C(=O)COC(=O)Cc2n[nH]c(=O)c3ccccc23)c(C)n1-c1ccc2c(c1)OCCO2 | 11.7%
NC(=O)C1CCN(C(=O)c2ccc(Oc3ccccc3)cc2)CC1 | -3.95%
CC(=O)OCC1OC(n2ncc(=O)n(Cc3ccccc3)c2=O)C(OC(C)=O)C1OC(C)=O (stereo not drawn) | 15.1%
C=CC(n1cncn1)C(O)(c1ccccc1)c1ccccc1 (stereo not drawn) | 11.7%
Cc1ccc(N(Cc2cc3ccccc3[nH]c2=O)C(=O)c2cccs2)cc1C | 11.4%
CC(=O)Nc1cccc(CNCc2cccc(NC(C)=O)c2)c1 | 1.47%
CC(C)(C)OC(=O)NCc1nc(N)n[nH]1 | 16%
CCC(CC)C(=O)c1c[nH]c(C(=O)OC)c1 | 11.3%
CC(C)(C)NC(=O)COC(=O)c1ccc(NC(=O)CC#N)cc1 | 19.3%
COc1ccc(C2C3C(C)=NN=C3CC(C)(O)C2C(C)=O)cc1 (stereo not drawn) | 13.4%
O=C1c2ccccc2C(=O)N1CCCc1nc(-c2ccccc2)no1 | 1.14%
CN(Cc1ccon1)C(=O)CC1C(=O)NCCN1CC(C)(C)C (stereo not drawn) | 7.47%
O=C(O)/C=C/C(=O)NCC1CCC(CNC(=O)/C=C/C(=O)O)CC1 (stereo not drawn) | 7.54%
O=C(NC1(C(F)(F)F)NC(=O)N(Cc2cccnc2)C1=O)c1ccc(F)cc1 (stereo not drawn) | -6.39%
CNC(=O)c1nc(C)n(-c2ccc([N+](=O)[O-])cc2)n1 | 22%
COc1ccc(CN2CCN(S(=O)(=O)c3ccc(F)cc3)CC2)cc1OC.O=C(O)C(=O)O | 8.64%
COc1ccccc1CNC(=O)c1ccccc1NS(C)(=O)=O | -0.328%
CC(C)C1C(C#N)=C(N)Oc2n[nH]c(-c3ccccc3)c21 (stereo not drawn) | 10.7%
CCOc1ccccc1NC(=O)Cn1c(=O)c2ccccc2n(CC)c1=O | -4.54%
CCn1c(SC(C)C(=O)NC2CCCc3ccccc32)nnc1-c1cccs1 (stereo not drawn) | -0.657%

SMILES | hERG current change (%, negative = inhibition) at 1uM
Cc1nc(Cl)c(C(=O)NC(=O)Nc2cccc(C(F)(F)F)c2)c(C)c1[N+](=O)[O-] | 7.05%
COc1ccc(S(=O)(=O)CCC(=O)N2CCN(c3ccc(F)cc3)CC2)cc1 | -18.6%
CCc1nccn1CCC(=O)NC1CC(C)(C)Cc2c1cnn2-c1cccc(F)c1 (stereo not drawn) | 7.83%
O=C(CC(c1ccc(F)cc1)c1ccco1)N1CCOCC1 (stereo not drawn) | -3.29%
COc1ccc(S(=O)(=O)Nc2ccc(OCC(=O)O)cc2)c2ccccc12 | 10.9%
CCc1nc2cccnc2n1-c1ccc(CC(=O)NC(C)CC)cc1 (stereo not drawn) | 12%
CC(c1ccccc1)N(CCC(c1ccccc1)C1CCOC(C)(C)C1)C(=O)c1ccco1 (stereo not drawn) | 0.237%
CC1CCc2c(sc3nc(CSc4n[nH]c(N)n4)[nH]c(=O)c23)C1 (stereo not drawn) | -2.59%
COc1ccccc1N(C(=O)c1ccco1)C(C(=O)NC1CCCC1)c1ccc(N2CCOCC2)cc1 (stereo not drawn) | 5.57%
Cc1cccc(-n2c(O)c(C=Nc3ccc(Br)cn3)c(=O)[nH]c2=O)c1 | 12.5%
Cc1ccc(/C=C/C(=O)N2CCN(S(=O)(=O)c3cccs3)CC2)o1 | 3.34%
COc1ccc(S(=O)(=O)NCc2cccnc2)cc1NC(=O)c1ccc(Cl)cc1 | -6.45%
NC(=O)c1ccc(NC(=O)COC(=O)/C=C/c2cn(-c3ccccc3)nc2-c2cccnc2)cc1 | 4.14%
O=C1CCC(C(=O)N2CCN(c3ccccc3)CC2)CN1CC1CCCCC1 (stereo not drawn) | -1.01%
Cc1ccc2nc3c(cc(C#N)c(=N)n3Cc3cccnc3)c(=O)n2c1 | -19.4%
CN(C(=O)COC(=O)c1ccc(Br)c([N+](=O)[O-])c1)c1c(N)n(Cc2ccccc2)c(=O)[nH]c1=O | 6.43%
CC(C)Sc1nc2c(c(=O)[nH]c(=O)n2C)n1Cc1ccccc1 | -3.17%
COc1cc(C(=O)NCC(=O)N/N=C(/C)c2ccc3c(c2)CCCC3)cc(OC)c1OC | 1.14%
CSc1cccc(NC(=S)N2CCC(N(C)C3CCCCCC3)CC2)c1 | -26.1%
COc1ccc(CC(=O)NC(C)(C)CC(C)=O)cc1OC | -3.81%
O=C(CN1C(=O)NC2(CCOc3ccccc32)C1=O)c1ccc(Cl)cc1 (stereo not drawn) | 2.89%
